Experimental data reported in PubChem BioAssay AID360 (National Center for Advancing Translational Sciences (NCATS), 2006).
Hit rate of the full screen: of about 48,000 compounds, about 550 (1.1%) were called active. Not shown: some 4% with an inconclusive outcome. No stated cut-off is given here; in the data, active means potency below about 15 µM; inconclusive means mostly about 16 µM to 33 µM; inactive means weaker than that. Some of the results follow.

These compounds were tested against Lysosomal acid glucosylceramidase (Homo sapiens) (UniProt P04062) (assay: Glucocerebrosidase). Conditions: purified enzyme, resorufin glucoside fluorescence (screen aimed at inhibitors), 20 min.
How it was run: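 Normal human glucocerebrosidase (0.2 nM final) was assayed with resorufin β-D-glucopyranoside (30 uM final) in 50mM citric acid/KH2PO4, 10mM sodium taurocholate, 0.01% tween-20, pH 5.9. Compounds were titrated; fluorescence (Ex 548, Em 600) read after 20 min at RT.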
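Further: the screen sought inhibitors.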
Potency means the concentration at half of the fitted maximal effect.

Sequence of UniProt P04062 (P04062 whole entry, looked up): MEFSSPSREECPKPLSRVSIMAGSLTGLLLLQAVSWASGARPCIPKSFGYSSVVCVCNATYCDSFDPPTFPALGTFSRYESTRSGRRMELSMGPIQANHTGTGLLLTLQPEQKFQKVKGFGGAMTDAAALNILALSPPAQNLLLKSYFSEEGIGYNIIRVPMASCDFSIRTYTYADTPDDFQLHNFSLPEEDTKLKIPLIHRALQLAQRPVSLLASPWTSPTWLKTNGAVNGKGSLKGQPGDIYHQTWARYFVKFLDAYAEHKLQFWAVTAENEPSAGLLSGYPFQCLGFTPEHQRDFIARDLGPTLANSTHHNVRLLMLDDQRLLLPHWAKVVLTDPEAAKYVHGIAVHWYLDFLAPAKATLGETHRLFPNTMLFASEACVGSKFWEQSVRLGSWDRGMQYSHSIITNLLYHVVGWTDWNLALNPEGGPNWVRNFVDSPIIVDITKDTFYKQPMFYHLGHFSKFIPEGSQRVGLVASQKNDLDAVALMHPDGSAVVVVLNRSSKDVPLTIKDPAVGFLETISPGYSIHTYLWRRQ

Potency, inactive:
CCOc1cc(C2C(C#N)=C(N)Oc3n[nH]c(-c4ccccc4)c32)ccc1O (stereo unspecified) > 76.9 µM
Cc1noc(NS(=O)(=O)c2ccc(N3CC(O)=C(c4ccccc4)C3=N)cc2)c1C > 76.9 µM
COCCn1c(C)c(C(=O)O)sc1=S > 76.9 µM
Cn1c(=O)c2c(ncn2CC(=O)N2CCN(c3ccccc3)CC2)n(C)c1=O > 76.9 µM
CC(=O)N1CCc2ccc(C(=O)CN3CCN(c4cccc(C)c4C)CC3)cc21 > 76.9 µM
CC1(C)Cc2nc3sc4c(SCC(=O)NCc5ccco5)ncnc4c3cc2CO1 > 76.9 µM
Cc1cccc(C2c3c(n(C)c(=O)n(C)c3=O)N=C3c4ccccc4C(=O)C32)c1 (stereo unspecified) > 76.9 µM
CCCCn1c2c(c(=N)c3c1CCC3)CCC2 > 76.9 µM
CN1C(=O)CC(N2CCC(C(N)=O)(N3CCCCC3)CC2)C1=O (stereo unspecified) > 76.9 µM
CCOC(=O)C(C)Oc1ccc(=O)n(-c2ccccc2)n1 (stereo unspecified) > 76.9 µM
Cc1nnc(NC(=O)NC(C)N2C(=O)C3C4C=CC(C4)C3C2=O)s1 (stereo unspecified) > 76.9 µM
Cc1cc(=O)oc2cc(OCc3nnc(-c4ccccc4Br)o3)ccc12 > 76.9 µM
CCCCN1c2ccccc2N(CCCO)c2cc(C)nnc21 > 76.9 µM
COCCN1C(=O)c2ccccc2C(C(=O)NCCCN2CCCC2)C1c1c[nH]c2ccccc12 (stereo unspecified) > 76.9 µM
COCc1nnc(NS(=O)(=O)c2ccc(C)cc2)s1 > 76.9 µM
CN(C)CCCNCCCNC(=O)c1ccncc1 > 76.9 µM
CCOC(=O)C(NC(C)=O)(Nc1cccc(F)c1)C(F)(F)F (stereo unspecified) > 76.9 µM
CN(C)c1ccc(N/C=C/C(=O)c2ccc(F)cc2)cc1 > 76.9 µM
Cc1nc(N2CCN(c3ccccc3)CC2)nc2c1C(=O)CC(C)C2 (stereo unspecified) > 15.4 µM
COc1ccc(OC)c(S(=O)(=O)N(C)CC(=O)O)c1 > 76.9 µM
Cc1ccc(C(=O)Nc2ccc(S(=O)(=O)N3CCc4ccccc43)cc2)o1 > 76.9 µM
COC(=O)Cn1c2ccc(F)cc2c2nc(C)sc21 > 76.9 µM
CCOc1cc(C(=O)Nc2ccccc2N2CCN(S(C)(=O)=O)CC2)cc(OCC)c1OCC > 76.9 µM
COCCn1c(C)cc(C(=O)CSc2ncn[nH]2)c1C > 76.9 µM
COc1ccc(OC)c2[nH]c(=O)c(CCNC(=O)COc3ccccc3)cc12 > 76.9 µM
CC1Cc2ccccc2N1C(=O)c1ccc2c(c1)nnn2C (stereo unspecified) > 76.9 µM
CCS(=O)(=O)NCCCCc1ccccc1 > 76.9 µM
O=C(O)C1CCN(c2nc(-c3ccccc3)nc3c2oc2ccccc23)CC1
COC(=O)CSc1ncnc2c1cnn2Cc1ccccc1 > 76.9 µM
CNC(=O)C1CC(=O)N(Cc2ccc3c(c2)OCO3)C(=Nc2ccc(OC)cc2)S1 (stereo unspecified) > 76.9 µM
CCn1c(=O)cc(SCC(=O)NCCN2CCN(Cc3ccccc3)CC2)c2ccccc21 > 76.9 µM
COc1ccc(NCc2nnc(SCC(=O)c3ccc(OC)cc3)n2C)cc1 > 76.9 µM
O=C(O)CCCNCc1ccccc1F > 76.9 µM
COc1ccccc1N1CCN(C(=O)c2ccc(CS(=O)(=O)c3ccccc3OC)o2)CC1 > 76.9 µM
CCOC(=O)N1CCN(C(=O)COc2cc(=O)n(CC)c3ccccc23)CC1 > 76.9 µM
O=C(CC(C(=O)O)N1CCOCC1)Nc1ccc(Cl)cc1 (stereo unspecified) > 76.9 µM
CCOC(=O)C1CCN(S(=O)(=O)c2ccc(NC(=O)OC)cc2)CC1 > 76.9 µM
Cn1c(-c2ccccc2)cc2c3no[n+]([O-])c3ccc21 > 76.9 µM
CCOC(=O)N1CCN(C(=O)CN(Cc2ccccc2)S(=O)(=O)c2ccc(OC)c(C)c2)CC1 > 76.9 µM
Cc1cc(C)nc(NS(=O)(=O)c2cccs2)c1 > 76.9 µM
COC(=O)Cc1cc(=O)[nH]c(/N=C(/NC(=O)c2ccccc2)Nc2ccccc2C)n1 > 76.9 µM
Cc1ccnc(NC(=O)CCCOc2cc(=O)n(C)c3ccccc23)c1 > 76.9 µM
CCNc1nc(Oc2ccc(=O)[nH]n2)nc(SC)n1 > 76.9 µM
O=C(Nc1cccnc1)C1(F)C(F)(F)C(F)(F)C(F)(F)C(F)(F)C1(F)F
COc1ccccc1NC(=O)CNC(=O)c1ccccc1 > 76.9 µM
COC(=O)c1cn(NC(=O)C2COc3ccccc3O2)c(=O)c2ccccc12 (stereo unspecified) > 76.9 µM
COc1ccc(-n2c(=O)c3ccccc3n(CC(=O)NC3CCCC3)c2=O)c(OC)c1 > 76.9 µM
O=C(NCC1CCCO1)c1nc2c(nnn2Cc2ccc(F)cc2)c(=O)[nH]1 (stereo unspecified) > 76.9 µM
N#Cc1c(-c2ccco2)nc(SCc2ccc(F)cc2)[nH]c1=O > 76.9 µM
Nc1nc(-c2cccnc2)nc(N2CCCCC2)n1 > 76.9 µM
CCc1nnc(NC(=O)C2CCCN2S(=O)(=O)c2ccc(F)cc2)s1 (stereo unspecified) > 76.9 µM
O=C(CSc1nc2c(c(=O)n1-c1ccc(Br)cc1)SCC2)NCc1ccco1 > 76.9 µM
COCCn1c(SCC(=O)N2CCCC2)nnc1C(C)C > 76.9 µM
O=C(CN1CCN(c2ccccc2)CC1)Nc1cccc(C(F)(F)F)c1 > 76.9 µM
O=C(O)c1cscn1 > 76.9 µM
CCOC(=O)Cn1ncc2c(=O)oc3ccccc3c21 > 76.9 µM
Cc1cnc(C(=O)OCC(=O)Nc2cc(Cl)cc(Cl)c2)cn1 > 76.9 µM
CCOC(=O)c1cc(NC(=O)NCc2ccco2)c(C)nc1C > 76.9 µM
Cc1ccc(C(=O)N2CCN(C(=O)c3ccc(C)c(C)c3)C(C)C2)cc1C (stereo unspecified) > 76.9 µM
CCN(CC)CCCNC1CCS(=O)(=O)C1 (stereo unspecified) > 76.9 µM
CCCc1ccc(Oc2cn[nH]c2-c2ccc(O)c(C)c2O)cc1 > 76.9 µM
O=C1C(C=Nc2ccccc2O)=C(O)c2ccccc21 > 76.9 µM
O=C(CSc1nnc(CNC(=O)c2c(F)cccc2Cl)o1)c1ccccc1 > 76.9 µM
CSCC[C@H](NC(=O)OC(C)(C)C)c1nnc(SCC(N)=O)o1 > 76.9 µM
O=C(COC(=O)c1ccc[nH]c1=O)NCC1CCCO1 (stereo unspecified) > 76.9 µM
CCOC(=O)c1nnn(-c2nonc2-n2cccc2)c1CN1CCCCC1
Cn1ncc(Cl)c1C(=O)N1CCc2ccccc21 > 76.9 µM
C=CCn1c(Cc2ccc(OC)cc2)nnc1SCc1nc2ccccc2c(=O)[nH]1 > 76.9 µM
N=c1c(S(=O)(=O)c2ccccc2)cc2c(=O)n3ccccc3nc2n1CC1CCCO1 (stereo unspecified) > 76.9 µM
O=C(Nc1ccc2c(c1)CCC2)c1cnn2c1NC(c1ccco1)CC2C(F)(F)F (stereo unspecified) > 76.9 µM
Cc1ccc(S(=O)(=O)Cn2nnnc2C(C(C)C)N2CCN(C(=O)c3ccco3)CC2)cc1 (stereo unspecified)
CCCn1c(=O)c2ccccc2n2c(SCC(=O)c3cc(C)n(CCOC)c3C)nnc12 > 76.9 µM
CCN(Cc1ccccc1)C(c1cc2cc(C)ccc2[nH]c1=O)c1nnnn1CCOC (stereo unspecified) > 76.9 µM
Cc1cc(C(=O)NCc2cccs2)cs1 > 76.9 µM
O=C(O)C1CC(=O)N(c2ccc(OCc3c(F)cccc3Cl)cc2)C1 (stereo unspecified) > 76.9 µM
CCNc1c(N)c(=O)oc2ccccc12 > 76.9 µM
Cc1c(C(=O)N2CCCCC2)oc2ccc(S(=O)(=O)N3CC(C)CC(C)C3)cc12 (stereo unspecified) > 76.9 µM
Cc1nc2ccccc2nc1OCC(=O)NCc1ccc2c(c1)OCO2 > 76.9 µM
COc1ccc(CCNC(=O)Cn2cnc3c(nnn3Cc3ccc(C)cc3)c2=O)cc1OC > 76.9 µM
CCOC(=O)c1ccc(CS(=O)c2ccc(Cl)cc2)o1 (stereo unspecified) > 76.9 µM
COCCCn1c(CCC(=O)O)ccc1-c1ccc(F)cc1 > 76.9 µM
Clc1ccccc1OCCn1ccnc1 > 76.9 µM
Cc1ccc(/C(O)=C2\C(=O)C(=O)N(c3cc(C)on3)C2c2cccc(Br)c2)cc1 (stereo unspecified) > 76.9 µM
Cc1occc1-c1nnc(SCC(=O)N2CCc3ccccc32)o1 > 76.9 µM
COc1ccccc1CN(C)C(=O)C1COc2ccccc2O1 (stereo unspecified) > 76.9 µM
COc1ccc(Cl)cc1N(CC(=O)Nc1ccccc1SC)S(C)(=O)=O > 76.9 µM
COc1ccc(N2C(=O)CC(NC3CC3)C2=O)cc1 (stereo unspecified) > 76.9 µM
COc1cccc(CNn2cnnc2)c1OCc1ccccc1F > 76.9 µM
Cn1c(N)c(C(=O)c2cc(-c3ccccn3)nc3ccccc23)c(=O)[nH]c1=O > 76.9 µM
COc1ccc(CNC(=O)Cn2nc(C(F)(F)F)c3c2CCC3)cc1 > 76.9 µM
O=C(CN1CCN(c2ccccc2)CC1)Nc1ccc(-n2cnnn2)cc1 > 76.9 µM
